# The list shows a part of the results.
# B1: BDCA-2 (Homo sapiens), Q8WTT0 (protein)
# chain: MVPEEEPQDREKGLWWFQLKVWSMAVVSILLLSVCFTVSSVVPHNFMYSKTVKRLSKLREYQQYHPSLTCVMEGKDIEDWSCCPTPWTSFQSSCYFISTGMQSWTKSQKNCSVMGADLVVINTREEQDFIIQNLKRNSSYFLGLSDPGGRRHWQWVDQTPYNENVTFWHSGEPNNLDERCAIINFRSSEEWGWNDIHCHVPQKSICKMKKIYI
# Tests used:
# Test in all cases: glycan array binding signal (z-score within array); higher = stronger binding
# Conditions in all cases: glycan notation: IUPAC condensed, linker removed
# [1] = target: Fuc(a1-2)[Gal(a1-3)]Gal(b1-4)GlcNAc(b1-2)Man
# Summary of the method: (§1)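 The binding signal is a Z-score computed within each array and averaged over linkers. Arrays of the same protein sequence at different concentrations or buffers were also averaged together. Data originate from 3228 arrays in the Consortium for Functional Glycomics database, kept only where the protein sequence was available.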
# [2] = target: Fuc(a1-2)[Gal(a1-3)]Gal(b1-4)GlcNAc(b1-2)Man(a1-3)[Fuc(a1-2)[Gal(a1-3)]Gal(b1-4)GlcNAc(b1-2)Man(a1-6)]Man(b1-4)GlcNAc(b1-4)GlcNAc
# Summary of the method: as §1
# [3] = target: Fuc(a1-2)[Gal(a1-3)]Gal(b1-4)GlcNAc(b1-2)Man(a1-3)[Fuc(a1-2)[Gal(a1-3)]Gal(b1-4)GlcNAc(b1-2)Man(a1-6)]Man(b1-4)GlcNAc(b1-4)[Fuc(a1-6)]GlcNAc
# Summary of the method: as §1
# [4] = target: Fuc(a1-2)[Gal(a1-3)]Gal(b1-4)GlcNAc(b1-3)GalNAc
# Summary of the method: as §1
# [5] = target: Fuc(a1-2)[Gal(a1-3)]Gal(b1-4)GlcNAc(b1-3)[Fuc(a1-2)[Gal(a1-3)]Gal(b1-4)GlcNAc(b1-6)]GalNAc
# Summary of the method: as §1
# [6] = target: Fuc(a1-2)[Gal(a1-3)]Gal(b1-4)GlcNAc(b1-6)GalNAc
# Summary of the method: as §1
# [7] = target: Fuc(a1-2)[Gal(a1-3)]Gal(b1-4)[Fuc(a1-3)]Glc
# Summary of the method: as §1
# [8] = target: Fuc(a1-2)[Gal(a1-3)]Gal(b1-4)[Fuc(a1-3)]GlcNAc
# Summary of the method: as §1
# [9] = target: Fuc(a1-2)[Gal(a1-3)]Gal(b1-4)[Fuc(a1-3)]GlcNAc(b1-3)GalNAc
# Summary of the method: as §1
# [10] = target: Fuc(a1-2)[Gal(a1-4)]Gal(b1-4)GlcNAc
# Summary of the method: as §1
# [11] = target: Fuc(a1-2)[GalNAc(a1-3)]Gal
# Summary of the method: as §1
# [12] = target: Fuc(a1-2)[GalNAc(a1-3)]Gal(b1-3)GalNAc(a1-3)[Fuc(a1-2)]Gal(b1-4)GlcNAc
# Summary of the method: as §1
# [13] = target: Fuc(a1-2)[GalNAc(a1-3)]Gal(b1-3)GalNAc(b1-3)Gal(a1-4)Gal(b1-4)Glc
# Summary of the method: as §1
# [14] = target: Fuc(a1-2)[GalNAc(a1-3)]Gal(b1-3)GlcNAc
# Summary of the method: as §1
# [15] = target: Fuc(a1-2)[GalNAc(a1-3)]Gal(b1-3)GlcNAc(b1-2)Man(a1-3)[Fuc(a1-2)[GalNAc(a1-3)]Gal(b1-3)GlcNAc(b1-2)Man(a1-6)]Man(b1-4)GlcNAc(b1-4)GlcNAc
# Summary of the method: as §1
# [16] = target: Fuc(a1-2)[GalNAc(a1-3)]Gal(b1-3)GlcNAc(b1-2)Man(a1-3)[Fuc(a1-2)[GalNAc(a1-3)]Gal(b1-3)GlcNAc(b1-2)Man(a1-6)]Man(b1-4)GlcNAc(b1-4)[Fuc(a1-6)]GlcNAc
# Summary of the method: as §1
# [17] = target: Fuc(a1-2)[GalNAc(a1-3)]Gal(b1-3)GlcNAc(b1-3)GalNAc
# Summary of the method: as §1
# [18] = target: Fuc(a1-2)[GalNAc(a1-3)]Gal(b1-3)GlcNAc(b1-6)GalNAc
# Summary of the method: as §1
# [19] = target: Fuc(a1-2)[GalNAc(a1-3)]Gal(b1-4)Glc
# Summary of the method: as §1
# [20] = target: Fuc(a1-2)[GalNAc(a1-3)]Gal(b1-4)GlcNAc
# Summary of the method: as §1
# [21] = target: Fuc(a1-2)[GalNAc(a1-3)]Gal(b1-4)GlcNAc(b1-2)Man
# Summary of the method: as §1
# [22] = target: Fuc(a1-2)[GalNAc(a1-3)]Gal(b1-4)GlcNAc(b1-2)Man(a1-3)[Fuc(a1-2)[GalNAc(a1-3)]Gal(b1-4)GlcNAc(b1-2)Man(a1-6)]Man(b1-4)GlcNAc(b1-4)GlcNAc
# Summary of the method: as §1
# [23] = target: Fuc(a1-2)[GalNAc(a1-3)]Gal(b1-4)GlcNAc(b1-2)Man(a1-3)[Fuc(a1-2)[GalNAc(a1-3)]Gal(b1-4)GlcNAc(b1-2)Man(a1-6)]Man(b1-4)GlcNAc(b1-4)[Fuc(a1-6)]GlcNAc
# Summary of the method: as §1
# [24] = target: Fuc(a1-2)[GalNAc(a1-3)]Gal(b1-4)GlcNAc(b1-3)Gal(b1-4)GlcNAc
# Summary of the method: as §1
# [25] = target: Fuc(a1-2)[GalNAc(a1-3)]Gal(b1-4)GlcNAc(b1-3)Gal(b1-4)GlcNAc(b1-3)Gal(b1-4)GlcNAc
# Summary of the method: as §1
# [26] = target: Fuc(a1-2)[GalNAc(a1-3)]Gal(b1-4)GlcNAc(b1-3)GalNAc
# Summary of the method: as §1
# [27] = target: Fuc(a1-2)[GalNAc(a1-3)]Gal(b1-4)GlcNAc(b1-3)[Fuc(a1-2)[GalNAc(a1-3)]Gal(b1-4)GlcNAc(b1-6)]GalNAc
# Summary of the method: as §1
# [28] = target: Fuc(a1-2)[GalNAc(a1-3)]Gal(b1-4)GlcNAc(b1-6)GalNAc
# Summary of the method: as §1
# [29] = target: Fuc(a1-2)[GalNAc(a1-3)]Gal(b1-4)[Fuc(a1-3)]GlcNAc
# Summary of the method: as §1
# [30] = target: Fuc(a1-2)[GalNAc(a1-3)]Gal(b1-4)[Fuc(a1-3)]GlcNAc(b1-3)GalNAc
# Summary of the method: as §1
# [31] = target: Fuc(a1-2)[GalNAc(a1-4)]Gal(b1-4)GlcNAc
# Summary of the method: as §1
# [32] = target: Fuc(a1-2)[GalNAc(b1-3)]Gal
# Summary of the method: as §1
# Fuc(a1-3)GlcNAc = target: Fuc(a1-3)GlcNAc
# Summary of the method: as §1
# [33] = target: Fuc(a1-3)[Gal(b1-4)]Glc6S
# Summary of the method: as §1
# [34] = target: Fuc(a1-3)[Gal(b1-4)]GlcNAc
# Summary of the method: as §1
# [35] = target: Fuc(a1-3)[Gal(b1-4)]GlcNAc(b1-2)Man
# Summary of the method: as §1
# [36] = target: Fuc(a1-3)[Gal(b1-4)]GlcNAc(b1-2)Man(a1-3)[Fuc(a1-3)[Gal(b1-4)]GlcNAc(b1-2)Man(a1-6)]Man(b1-4)GlcNAc(b1-4)GlcNAc
# Summary of the method: as §1
# [37] = target: Fuc(a1-3)[Gal(b1-4)]GlcNAc(b1-2)Man(a1-3)[Fuc(a1-3)[Gal(b1-4)]GlcNAc(b1-2)Man(a1-6)]Man(b1-4)GlcNAc(b1-4)[Fuc(a1-6)]GlcNAc
# Summary of the method: as §1
# [38] = target: Fuc(a1-3)[Gal(b1-4)]GlcNAc(b1-3)Gal(b1-3)[Fuc(a1-4)]GlcNAc
# Summary of the method: as §1
# [39] = target: Fuc(a1-3)[Gal(b1-4)]GlcNAc(b1-3)Gal(b1-4)[Fuc(a1-3)]GlcNAc
# Summary of the method: as §1
# [40] = target: Fuc(a1-3)[Gal(b1-4)]GlcNAc(b1-3)Gal(b1-4)[Fuc(a1-3)]GlcNAc(b1-3)Gal(b1-4)[Fuc(a1-3)]GlcNAc
# Summary of the method: as §1
# [41] = target: Fuc(a1-3)[Gal(b1-4)]GlcNAc(b1-3)GalNAc
# Summary of the method: as §1
# [42] = target: Fuc(a1-3)[Gal(b1-4)]GlcNAc(b1-4)Gal(b1-4)[Fuc(a1-3)]GlcNAc
# Summary of the method: as §1
# [43] = target: Fuc(a1-3)[Gal(b1-4)]GlcNAc(b1-4)Gal(b1-4)[Fuc(a1-3)]GlcNAc(b1-4)Gal(b1-4)[Fuc(a1-3)]GlcNAc
# Summary of the method: as §1
# [44] = target: Fuc(a1-3)[Gal(b1-4)]GlcNAc(b1-6)GalNAc
# Summary of the method: as §1
binder,measurement,setting,value
B1,glycan array binding signal (z-score),[1],-0.092
same,glycan array binding signal (z-score),[2],-0.115
same,glycan array binding signal (z-score),[3],-0.081
same,glycan array binding signal (z-score),[4],-0.098
same,glycan array binding signal (z-score),[5],-0.099
same,glycan array binding signal (z-score),[6],-0.159
same,glycan array binding signal (z-score),[7],-0.18
same,glycan array binding signal (z-score),[8],-0.077
same,glycan array binding signal (z-score),[9],-0.149
same,glycan array binding signal (z-score),[10],-0.24
same,glycan array binding signal (z-score),[11],-0.181
same,glycan array binding signal (z-score),[12],-0.188
same,glycan array binding signal (z-score),[13],-0.167
same,glycan array binding signal (z-score),[14],-0.204
same,glycan array binding signal (z-score),[15],-0.171
same,glycan array binding signal (z-score),[16],-0.143
same,glycan array binding signal (z-score),[17],-0.161
same,glycan array binding signal (z-score),[18],-0.188
same,glycan array binding signal (z-score),[19],-0.2
same,glycan array binding signal (z-score),[20],0.036
same,glycan array binding signal (z-score),[21],-0.188
same,glycan array binding signal (z-score),[22],-0.126
same,glycan array binding signal (z-score),[23],-0.133
same,glycan array binding signal (z-score),[24],-0.194
same,glycan array binding signal (z-score),[25],-0.152
same,glycan array binding signal (z-score),[26],-0.14
same,glycan array binding signal (z-score),[27],-0.119
same,glycan array binding signal (z-score),[28],-0.178
same,glycan array binding signal (z-score),[29],-0.026
same,glycan array binding signal (z-score),[30],-0.03
same,glycan array binding signal (z-score),[31],-0.264
same,glycan array binding signal (z-score),[32],0.244
same,glycan array binding signal (z-score),Fuc(a1-3)GlcNAc,-0.147
same,glycan array binding signal (z-score),[33],-0.135
same,glycan array binding signal (z-score),[34],-0.224
same,glycan array binding signal (z-score),[35],-0.166
same,glycan array binding signal (z-score),[36],-0.166
same,glycan array binding signal (z-score),[37],-0.15
same,glycan array binding signal (z-score),[38],-0.175
same,glycan array binding signal (z-score),[39],-0.154
same,glycan array binding signal (z-score),[40],-0.18
same,glycan array binding signal (z-score),[41],-0.12
same,glycan array binding signal (z-score),[42],-0.171
same,glycan array binding signal (z-score),[43],-0.021
same,glycan array binding signal (z-score),[44],-0.148
